# Measured values from ChEMBL document CHEMBL4888484, “Replenishing the malaria drug discovery pipeline: Screening and hit evaluation of the MMV Hit Generation Library 1 (HGL1) against asexual blood stage Plasmodium falciparum ,using a nano luciferase reporter read-out” (2022).
# Out of some 150,000 compounds screened, about 540 (0.36%) showed an effect of 50% or more. This is one part of the list.
# Test system: Plasmodium falciparum
# Assay: Primary screen in NF54 nanoGlo assay, in single point, at 2uM, 72h; a lower Z score goes with more inhibition
# Assay type: functional, Erythrocyte
# Settings: timepoint 72 hour
Compound,% Inhibition,Z score
CCc1ocnc1C(=O)Nc1c(C)cnn1C(CC)CC,-6%,0.92
CC1COC(CO)CN1C(=O)Cc1cc2c(ccc3ccccc32)o1 (stereo not given),12%,-1.69
Cc1nc(CCNC(=NCc2ccccc2)NCC2CC2)cs1,-4%,0.44
CN(C)S(=O)(=O)c1cccc(C(=O)NC2(C)Cc3ccccc3C2)c1,-3%,0.38
Cc1ncccc1CC(=O)N1CCCC[C@H]1c1nc(=O)[nH][nH]1,-8%,1.49
Cc1cc(C)n([C@H](Nc2ccc(Br)cn2)c2ccc(Cl)cc2Cl)n1,-39%,4.54
O=C(Nc1cccc2ccccc12)c1ccc2c(c1)OCO2,-11%,1.5
Cc1cccc([C@H](C)NCCc2cnn(C)c2)c1C,9%,-0.93
CCN(CCCNC(=O)Nc1ccn(C(C)(C)C)n1)S(C)(=O)=O,1%,-0.13
Cc1cc(C(=O)C[n+]2cc(Cl)n(C)c2)c(C)n1-c1ccc(OC(F)F)cc1,19%,-3
Nc1cc(C(=O)O)ccc1OCC(F)(F)F,-12%,1.88
Cc1ccc2ncccc2c1CNC(=O)N1CCN(Cc2nccn2C)CC1,-12%,1.7
COC1CCC(NC(=O)N2CCc3ccccc3CC2)C1 (stereo not given),-15%,1.51
COCc1ccccc1CNCc1ccc2c(c1)CCO2,-10%,1.23
Cc1noc(C(C)C)c1C(=O)N1CC[C@H](C(=O)NCc2ccccc2)C1,-6%,0.68
CC1(C)C(=O)Nc2ccc(C(=O)Nc3nc4n(n3)CCCC4)cc21,-15%,2.86
CCOc1ccc(-c2cc(/C=C/c3ccc(OC)cc3)nc(-c3ccc(OCC)cc3)c2)cc1,-16%,1.85
O=C1CN(c2ccnc(C(=O)N3CCC[C@H]3c3ccn[nH]3)c2)CCN1,-41%,4.84
CN(C)c1ccc(NC(=O)CN(Cc2nc(-c3ccccc3)cs2)C(=O)Cn2nnc3ccccc32)cc1,-8%,1.2
COCCNc1ncccc1-c1noc([C@@H]2CCCN2C2CCN(C)CC2)n1,-11%,1.45
O=C(c1cc(-c2ccccc2)c(N2CCOCC2)s1)N1CCCc2ccccc21,-14%,2.18
COc1ccc2c(c1)CCc1c(C(=O)N3CCN(c4cc(=O)n(C)c(=O)n4C)CC3)n[nH]c1-2,-1%,0.19

Compound,% Inhibition,Z score
CC(C)=C(F)c1nc(-c2cscn2)no1,2%,-0.21
Cc1cccc(-c2[nH]ncc2CN2CC[C@](C)(O)C2)c1,3%,-0.52
Cc1ccc(NC(=O)NCc2ccccn2)nc1,36%,-4.83
CN(C)c1ccc(C[C@@H](CO)Nc2ccncn2)cc1,3%,-0.45
COc1c2c(cc3c1OCO3)CCN(C)C(C(=O)c1ccc(C)c(NC(=O)c3ccccc3)c1)=C2,1%,-0.23
Cc1cc(CNC(=O)c2cc[nH]c2C)ccc1S(C)(=O)=O,35%,-3.95
CC1(C)[C@@H]2CCC13CS(=O)(=O)N(CCOCC(F)(F)F)[C@H]3C2,-14%,2.26
CCCc1cc(C(=O)N(Cc2ccco2)C[C@H]2CCCO2)no1,-1%,0.15
CN(Cc1cnns1)[C@@H](C(=O)O)c1cccc(Br)c1,-6%,1.18
COc1cccc(-c2ccc(N3CCN(C(=O)CN(Cc4ccc5c(c4)OCO5)C(=O)c4ccc(F)cc4)CC3)nn2)c1,-8%,1.32
CC[C@H](C)N(CC#Cc1ccccc1)Cc1ccc(C#CCO)s1,-8%,1.56
CC(NCC(O)Cn1c(-c2ccccc2)c(-c2ccccc2)c2ccc3ccccc3c21)c1ccccc1 (stereo not given),88%,-10.69
CCN(CCOC)c1nc(N)nc(C(F)F)n1,3%,-0.46
CCc1cnc(C)nc1N1CCN(Cc2cccc3nsnc23)CC1,-5%,0.77
CCCn1cc(-c2ccnc(NCCCc3nnn[nH]3)n2)c(C)n1,5%,-0.84
O=C(CC1CCCCC1)NCc1ccccn1,-4%,0.54
Cn1c(=O)c2c(ncn2Cc2nnc(-c3cccs3)o2)n(C)c1=O,-6%,1.09
Cc1n[nH]cc1CN(C)C(=O)c1n[nH]c(C)c1Cl,-14%,1.26
CCNC(=O)[C@@H]1CC[C@](C)(C(=O)NCc2ccncc2C)C1(C)C,0%,-0.05
Cn1ncc2c(NCC3(C(N)=O)CCOCC3)ccnc21,-4%,0.42
c1csc([C@@H]2NCCOc3ccccc32)c1,-13%,1.73
Cn1c(=O)c2c(ncn2Cc2noc(-c3cccs3)n2)n(C)c1=O,-18%,3.47

Compound,% Inhibition,Z score
CCCCCC(C)NC(=O)C1CCCN1 (stereo not given),1%,-0.15
Cc1cnn(CCC(=O)N2CCC[C@H](n3cccn3)C2)c1,-17%,2.32
Cc1ccc2c(c1C)OC[C@@H]2NCc1cc(C(N)=O)cs1,-3%,0.31
CCC(=O)N1CCCCC1C(=O)N1CCCC2(C1)OCc1ccccc12 (stereo not given),-2%,0.41
CNc1nc2c(c(C(=O)N3CCCC3)n1)CN(C(=O)Nc1ccc(C)cc1)CC2,-1%,0.21
O=C1C[C@H](C(=O)NCc2cccnc2N2CCCCCCC2)CN1,-20%,1.91
O=C(Nc1nccc2sccc12)[C@@H]1CCCO1,8%,-0.75
CO[C@@H]1C[C@@H](c2ncn[nH]2)N(C(=O)c2cn[nH]c2C)C1,-6%,0.8
CCc1[nH]nc(-c2ccc(OC)cc2OC)c1NC(=O)Nc1ccc(F)cc1F,-13%,1.17
Fc1ccc(-c2cccc(C3CCC3)c2)c2cc[nH]c12,-5%,0.93
O=C(N[C@H]1C[C@@H]2C[C@H]1N(C(=O)c1ccccc1C(F)(F)F)C2)c1cccnc1,35%,-3.96
Cc1cnccc1NCCn1ccnc1-c1nc2ccccc2n1C,-7%,1.17
COCc1c(C(=O)N(C)Cc2ccco2)c(=O)cc(C)n1CC1CCCCC1,-7%,0.8
CCC(C(=O)Nc1ccc2c(c1)CN(CCc1ccccc1)C(=O)C(C)O2)c1ccccc1 (stereo not given),-7%,0.66
COCCOCCNC(=O)c1ncsc1Nc1ccccc1,1%,-0.06
OCc1cc2n(n1)CCCN(Cc1nc(C(F)(F)F)no1)C2,-5%,0.96
CC1(c2cc(NC(=O)N[C@H]3CCN(CC(F)F)C3)no2)CCCC1,-6%,0.97
Cc1nnsc1CNC(=O)[C@]1(C)CCCO1,-7%,1.3
c1ccc(Oc2ccc(-c3csc4nc5ccccc5n34)cc2)cc1,34%,-0.48
O=C(N[C@H]1CCOC[C@H]1C1CCOCC1)c1ccccc1-c1ccccc1,-3%,0.49
CC[C@@H](CO)NC(=O)COc1ccccc1,-3%,0.43
COc1cccc(Cl)c1CC(=O)NC1(C#N)CCOCC1,5%,-0.55

Compound,% Inhibition,Z score
COc1ccc(-c2nnc(N3CCC[C@H](C(N)=O)C3)s2)cc1,6%,-0.8
O=C(c1cccc2c1CCOC2)N1CCC[C@H](n2ccnn2)C1,5%,-0.84
COCCN1C(=O)[C@H]2C(C(=O)Nc3ccc(Cl)cc3)[C@H]3C=C[C@@]2(O3)C1C(=O)NC1CCCC(C)C1C (stereo not given in full),0%,0
CCOC(=O)N1CCC(NC(=O)c2ccoc2)CC1,-15%,2.28
O=C(O)c1cccc(NC(=O)c2ccc(O)cc2)c1,4%,-0.54
Cc1cnc(-c2cccnc2)n1CC1CN(C(=O)CCC2CCCC2)C1,-2%,0.31
CC(C)c1ccoc1-c1noc(C[C@H]2CNC[C@@H]2C)n1,-2%,0.28
Cc1noc(C(C)C)c1C(=O)N(C)C1CCN(c2ccccn2)CC1,-3%,0.42
O=C(OCc1nc(-c2ccccc2)no1)c1ccccn1,-4%,0.6
Cc1c(C2=NOC3(CCC(C(C)C)CC3)N2)c(=O)[nH]c(=O)n1C (stereo not given),-1%,0.08
Cc1c(C(=O)O)nn(-c2cccc(F)c2)c1Oc1ccc(NC(=O)C2CCCC2)cc1S(=O)(=O)NC1CC1,-12%,1.11
CCN(CC)Cc1cc2ccccc2c2c1COC2,28%,-3.15
CCc1ccnc(C(=O)Nc2ccc(CN(C)C)cn2)c1,-1%,0.18
Cn1nccc1[C@@H](NCc1cc(Cl)cs1)C(=O)O,-11%,2.03
O=C1CCc2c1cccc2C(=O)N1C[C@H](CO)C[C@H](CO)C1,-6%,0.96
CO[C@@H]1CCC[C@@H]2CN(S(=O)(=O)c3ccccc3)C[C@@H]21,30%,-2.94
CNC(=O)CCN(C)C(=O)c1ccc2c(c1)n(CC1CC1)c(=O)n2C1CCCCC1,-11%,2.2
Cc1ccc(C(=O)Nc2ccsc2-c2nnc(C(C)C)o2)cc1,-8%,0.77
Cc1cccc(Cc2nnc(CCC(=O)NCc3cc(C)n(C)n3)o2)c1,-20%,2.24
